Experimental data reported in PubChem BioAssay AID588855 (National Center for Advancing Translational Sciences (NCATS), 2011).
In all, about 410,000 compounds went through this assay and about 5,000 (1.2%) were called active. Inconclusive results, whose numbers are uncertain, are shown with a selection of clear calls. Calls follow the shape of the dose curve; as a rule, active = well fitted inhibition curve with a large enough effect; inconclusive = small, poorly fitted or top-dose-only effect; inactive = no such curve, though single readings can be large or run the other way. A potency beside an inconclusive call is a rough fit, not a confirmed value.

experiment: qHTS for Inhibitors of TGF-b; details: HepG2 CAGA-GFP TGF-b/SMAD3 reporter, GFP fluorescence, 18 h, TGF-beta stimulated, 500 pg/mL final; series mostly up to 46.1 µM; activity, negative = inhibition: at the top concentration; also: nearly all actives have a fitted effect of over 65% in size
Summary of the method: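 TGF-beta reporter screen: HEPG2 CAGA-GFP, 1% FBS, 500 pg/mL TGF-beta final, 18 h; per-cell GFP summed per well; curves fitted and categorized by class.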
% is scaled to controls: 0 for no effect and ±100 for the full control effect; potency is read from the fitted curve at half-maximal effect; tags tell the direction and shape of the fitted curve.

Q: For `OCCNc1nc(Nc2ccccc2Oc2ccccc2)nc(N2CCCC2)n1`, which Potency is on record?
A: inconclusive: 7.94 µM [inhibitor, partial curve, poor fit]

Q: Which “activity, negative = inhibition” value does the source give for `Cc1ccc(-c2[nH]c3cc(C(=O)NCCCn4ccnc4)ccc3c(=O)c2O)cc1` here?
A: inactive: -2.53%

Q: With `C#CC1(O)CCC2C3CCc4cc(O)cc(C)c4C3CCC21C` (configuration not stated) as the compound, how does the Potency read?
A: inconclusive: 35.5 µM [inhibitor, single point]

Q: Which Potency does the source give for `CNc1c(NS(=O)(=O)c2ccc(Br)cc2)c(=O)oc2ccccc12` here?
A: inconclusive: 11.2 µM [inhibitor, single point]

Q: For `CN(C1=NC(=O)C(CC(=O)Nc2ccc(Br)cc2)S1)c1ccc(O)cc1` (configuration not stated), which Potency is on record?
A: inconclusive: 22.4 µM [inhibitor, single point]

Q: For `O=S1(=O)c2cccc3cccc(c23)N1CCBr`, which “activity, negative = inhibition” value is on record?
A: inactive: 3.37%

Q: For `Fc1cccc(-c2c(-c3ccccc3)ncc3cc(F)ccc23)c1`, which Potency is on record?
A: inconclusive: 12.6 µM [inhibitor, partial curve, poor fit]

Q: For `COc1ccc(F)cc1S(=O)(=O)NCCc1csc2nc(-c3cccc(C)c3)nn12`, which Potency is on record?
A: inconclusive: 35.5 µM [inhibitor, partial curve, poor fit]

Q: With `O=C(c1ccccc1Cl)N1c2ncnn2C2(CCCCC2)[C@@H]2CCCC[C@@H]21` as the compound, how does the “activity, negative = inhibition” value read?
A: inactive: 4.71%

Q: Which Potency does the source give for `Cc1c(-c2cccc(Cl)c2)nc2ccccc2c1C(=O)OCC(=O)Nc1ccc2c(c1)OCO2` here?
A: inconclusive: 35.5 µM [inhibitor, partial curve, poor fit]

Q: For `CCN1CCN(C(c2cc(OC)c(OC)c(OC)c2)c2nnnn2C(C)C)CC1` (configuration not stated), which Potency is on record?
A: inconclusive: 6.31 µM [inhibitor, single point]

Q: With `CCc1ccc(C2c3[nH]c4ccccc4c3CCN2C(=O)c2cc(C)nn2C)cc1` (configuration not stated) as the compound, how does the Potency read?
A: inconclusive: 35.5 µM [inhibitor, single point]

Q: Which Potency does the source give for `Cc1cccc(Cn2c(CNS(=O)(=O)c3ccc4c(c3)CCCC4)nc3cccnc32)c1` here?
A: inconclusive: 15.8 µM [inhibitor, partial curve]

Q: Which Potency does the source give for `CNC(=O)C12CC3CC(CC(Cl)(C3)C1)C2` here?
A: inconclusive: 5.62 µM [inhibitor, single point]

Q: Which Potency does the source give for `COc1ccc(S(=O)(=O)N2CCCN(S(=O)(=O)c3ccc(OC)cc3C)CC2)c(C)c1` here?
A: inconclusive: 8.91 µM [inhibitor, single point]

Q: With `Cc1ccc(-n2c(CC#N)n[nH]c2=S)c(C)c1` as the compound, how does the “activity, negative = inhibition” value read?
A: inactive: -7.79%

Q: With `COc1cccc(NC(=O)CN(C)C(=O)c2cccc(NS(=O)(=O)c3ccc(Br)cc3)c2)c1` as the compound, how does the Potency read?
A: inconclusive: 14.1 µM [inhibitor, single point]

Q: Which Potency does the source give for `FC(F)(F)c1cccc(NC(=S)NCc2ccc(Cl)cc2)c1` here?
A: active: 10 µM

Q: For `O=C(COc1ccccc1)Nc1nnc(-c2ccc3c(c2)CCCC3)o1`, which “activity, negative = inhibition” value is on record?
A: inactive: -24.8%

Q: With `Cc1c(Cl)cccc1-c1ccc(C(=O)Nc2ccc(F)cc2)o1` as the compound, how does the Potency read?
A: inconclusive: 12.6 µM [inhibitor, partial curve, poor fit]

Q: With `COc1ccc(C(=O)Nc2ccc3nc(C)sc3c2)cc1S(=O)(=O)N1CCOCC1` as the compound, how does the “activity, negative = inhibition” value read?
A: inactive: 0.124%

Q: Which “activity, negative = inhibition” value does the source give for `Cc1ccccc1NC(=O)C1CCN(c2cc(-c3ccccc3)nc3ncnn23)CC1` here?
A: inactive: -15.2%

Q: With `C/C(=N\N=C(N)N)c1cc(Cl)ccc1Cl` as the compound, how does the Potency read?
A: inconclusive: 3.98 µM [inhibitor, partial curve, poor fit]

Q: With `COc1ccccc1/C=C1\CCCC2=C1Nc1nnnn1C2c1ccccc1OC` (configuration not stated) as the compound, how does the Potency read?
A: active: 12.6 µM

Q: For `Cc1cc(C)cc(C(=O)NC(CC(N)=O)c2ccc(NC3CCCCCCC3)c([N+](=O)[O-])c2)c1` (configuration not stated), which Potency is on record?
A: inconclusive: 35.5 µM [inhibitor, single point]

Q: With `Cc1cc(NC(=O)CCC(=O)N(c2ccccc2)C(C(=O)NC2CCCCC2)c2cccs2)no1` (configuration not stated) as the compound, how does the Potency read?
A: inconclusive: 5.62 µM [inhibitor, single point]

Q: For `Cc1ccc(CC(C)(O)CC(C)(O)Cc2ccc(C)cc2)cc1` (configuration not stated), which Potency is on record?
A: inconclusive: 20 µM [inhibitor, partial curve, poor fit]

Q: With `COc1ccccc1N1CCN(S(=O)(=O)c2cc(Br)cnc2N)CC1` as the compound, how does the Potency read?
A: inconclusive: 17.8 µM [inhibitor, single point]

Q: Which Potency does the source give for `COc1ccc(NS(=O)(=O)c2ccc(OC)c(N(C)S(=O)(=O)c3ccc(Cl)cc3)c2)cc1` here?
A: active: 10 µM

Q: For `CC1C(=O)N(Cc2cn(CC3CCCCC3)nn2)CCS(=O)(=O)N1Cc1ccc(-c2ccc(Cl)cc2)cc1` (configuration not stated), which Potency is on record?
A: inconclusive: 17.8 µM [inhibitor, single point]

Q: For `S=C(N/N=C/c1ccc(Cl)c(Cl)c1)Nc1ccccc1Cl`, which “activity, negative = inhibition” value is on record?
A: inactive: -0.997%

Q: Which “activity, negative = inhibition” value does the source give for `COc1ccc(C(=O)N/N=C/c2sc3ccccc3c2O)cc1` here?
A: inactive: 0%

Q: With `CCOc1ccc(/C=C2\SC(=S)N(C(C(=O)O)c3ccccc3)C2=O)cc1OC` (configuration not stated) as the compound, how does the Potency read?
A: inconclusive: 35.5 µM [inhibitor, single point]

Q: With `CCN(CC)C(=O)CSc1nc(-c2ccccc2F)nc2c1Cc1c(CO)cnc(C)c1O2` as the compound, how does the “activity, negative = inhibition” value read?
A: inactive: 2.83%

Q: With `Cc1c(-c2ccc(Br)cc2)c(=O)oc2ccc(OC(=O)N3CCOCC3)cc12` as the compound, how does the Potency read?
A: inconclusive: 10 µM [inhibitor, partial curve]

Q: Which Potency does the source give for `Cc1ccc2[nH]c3c(=S)nc[nH]c3c2c1` here?
A: inconclusive: 3.98 µM [inhibitor, full curve]

Q: For `COc1ccc(CC(=O)NNC(=O)COc2ccc(C)cc2)cc1S(=O)(=O)N1CCOCC1`, which “activity, negative = inhibition” value is on record?
A: inactive: 8.01%

Q: Which Potency does the source give for `[O-][n+]1onc2c1CCc1c-2nn(-c2ccccc2Cl)[n+]1[O-]` here?
A: inconclusive: 25.1 µM [inhibitor, single point]

Q: For `COc1ccccc1-n1cnc(N)c1C(=O)c1ccccc1`, which “activity, negative = inhibition” value is on record?
A: inactive: 0%

Q: With `Cc1ccc(C(C#N)c2ccc(C(=O)c3ccc(F)cc3)cc2)cc1` (configuration not stated) as the compound, how does the “activity, negative = inhibition” value read?
A: inactive: -22.6%

Q: With `CCC(Sc1nc2ccsc2c(=O)n1Cc1ccc(C(=O)O)cc1)C(=O)Nc1ccc(C)c(Cl)c1` (configuration not stated) as the compound, how does the Potency read?
A: inconclusive: 35.5 µM [inhibitor, single point]

Q: For `CC(=O)c1cccc(NC(=O)c2sc(-n3nc(C)c(Cc4ccc5c(c4)OCO5)c3C)nc2C)c1`, which Potency is on record?
A: inconclusive: 1.58 µM [inhibitor, full curve, poor fit]

Q: For `OC(CNC1CCCc2ccccc21)COc1ccc2ccccc2c1` (configuration not stated), which Potency is on record?
A: inconclusive: 22.4 µM [inhibitor, single point]

Q: With `CCOc1ccc(-c2cccc(NS(=O)(=O)c3c(C)cc(C)cc3C)c2)nn1` as the compound, how does the Potency read?
A: active: 20 µM

Q: For `Cc1ccc(CNC(=O)c2cc3cc(Br)ccc3oc2=N)cc1`, which “activity, negative = inhibition” value is on record?
A: inactive: 0.301%

Q: With `CC1CCCCC12NC(=O)N(CC(=O)N1CCc3ccccc3C1)C2=O` (configuration not stated) as the compound, how does the “activity, negative = inhibition” value read?
A: inactive: -3%

Q: For `CCN(C(=O)C1CCN(S(=O)(=O)c2ccc3c(c2)CCCN3C(C)=O)CC1)c1cccc(C)c1`, which Potency is on record?
A: inconclusive: 10 µM [inhibitor, partial curve, poor fit]

Q: Which Potency does the source give for `O=C(NC(=S)Nc1cccc2cc(O)ccc12)c1ccccc1Br` here?
A: inconclusive: 35.5 µM [inhibitor, single point]

Q: For `C=CCNC(=O)c1ccccc1NC(=O)C1COc2ccccc2O1` (configuration not stated), which “activity, negative = inhibition” value is on record?
A: inactive: 2.14%

Q: For `COc1ccc(NC(=O)c2cc(Cl)ccc2Cl)c([N+](=O)[O-])c1`, which Potency is on record?
A: inconclusive: 6.31 µM [inhibitor, single point]

Q: Which Potency does the source give for `Clc1cccc(CN2CCc3c([nH]c4ccccc34)C2)c1Cl` here?
A: inconclusive: 11.2 µM [inhibitor, single point]

Q: With `Cc1ccccc1C(=O)NC(=S)Nc1ccccc1N1CCCC1` as the compound, how does the Potency read?
A: inconclusive: 35.5 µM [inhibitor, single point]

Q: For `COc1ccc(OC)c(-c2csc(NC(=O)c3ccc(F)cc3)n2)c1`, which Potency is on record?
A: inconclusive: 22.4 µM [inhibitor, single point]

Q: With `CC(C)(C)OC(=O)CNC(=O)c1[nH]cnc1C(=O)N[C@@H](CCCCNC(=O)OC(C)(C)C)C(=O)OC(C)(C)C` as the compound, how does the Potency read?
A: inconclusive: 35.5 µM [inhibitor, single point]

Q: Which Potency does the source give for `CN(c1ncnc2onc(-c3cccc(Cl)c3)c12)C1CCCCC1` here?
A: inconclusive: 31.6 µM [inhibitor, single point]

Q: Which Potency does the source give for `COc1ccc(OC)c(Nc2ncnc3sc(-c4ccccc4)cc23)c1` here?
A: inconclusive: 0.126 µM [inhibitor, full curve, poor fit]

Q: With `C=CCc1ccccc1OCC(=O)NNC(=S)NCc1ccccc1` as the compound, how does the Potency read?
A: inconclusive: 35.5 µM [inhibitor, single point]

Q: With `CCCCN(C(=O)c1ccc(Cl)c([N+](=O)[O-])c1)c1c(N)n(CCC)c(=O)[nH]c1=O` as the compound, how does the Potency read?
A: inconclusive: 12.6 µM [inhibitor, single point]

Q: Which Potency does the source give for `O=C(NCc1ccccc1)c1sc(=S)n2c1[nH]c(=O)c1ccccc12` here?
A: inconclusive: 35.5 µM [inhibitor, single point]

Q: Which “activity, negative = inhibition” value does the source give for `Cn1c(=O)c2c(nc(NCc3ccccc3)n2Cc2ccccc2)n(C)c1=O` here?
A: inactive: -55.5%

Q: For `CCOc1ccc(S(=O)(=O)NCCC(=O)NCCc2ccc(C(C)C)cc2)cc1`, which Potency is on record?
A: inconclusive: 3.55 µM [inhibitor, single point]

Q: For `N#Cc1ccc(C(=O)NC(=S)NC2CCCCC2)cc1`, which Potency is on record?
A: inconclusive: 35.5 µM [inhibitor, single point]

Q: With `CC1CCCCC1NC(=O)COC(=O)CNC(=O)c1cccc(F)c1` (configuration not stated) as the compound, how does the Potency read?
A: inconclusive: 12.6 µM [inhibitor, single point]

Q: For `CC(=O)Nc1nc2ccccc2n1Cc1ccccc1Cl`, which Potency is on record?
A: inconclusive: 35.5 µM [inhibitor, single point]

Q: With `CCCCCC(=O)NNC(=O)c1c(O)c2ccccc2n(CC)c1=O` as the compound, how does the “activity, negative = inhibition” value read?
A: inactive: -10.4%

Q: With `O=C(c1cccc(S(=O)(=O)N2CCCCC2)c1)N(CCc1ccccc1)Cc1ccccc1` as the compound, how does the Potency read?
A: inconclusive: 11.2 µM [inhibitor, partial curve, poor fit]

Q: Which Potency does the source give for `Cc1cccc(C(=O)N[C@H](C(=O)Nc2ccc(C)c(S(=O)(=O)N3CCOCC3)c2)C(C)C)c1` here?
A: inconclusive: 8.91 µM [inhibitor, partial curve]
